According to the RNAGym collection of RNA variant scans (doi:10.1093/nar/gkz1192):
The source gives no read counts; variants with many changes may rest on few reads.

B1: CPEB3 Ribozyme (parent)
chain: UAACAGGGGGCCACAGCAGAAGCGUUCACGUCGCAGCCCCUGUCAGAUUCUGGUGAAUCUGCGAAUUCUGCUGUAUAUCUC

Variants of: B1
Assay: self-cleavage, relative activity (ratio to wild type); higher = more cleavage; in vitro, sequencing
Outline: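 Relative activity was defined as the cleaved/total read fraction for a variant divided by the same fraction for the unmutated ribozyme. CPEB3 self-cleaving ribozyme libraries were made by rounds of error-prone PCR, barcoded, and transcribed in vitro with T7 RNA polymerase for 5 hours at 37°C, and cleavage ran through transcription plus a 15 min DNase I step before EDTA. Illumina sequencing of template-switched reverse transcripts gave the reads, and DNA sequencing mapped the barcodes. Averages come from three batches, using variants with at least 5 reads.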
Work on U1C A5U G9U A15U G16C U49C yielded a self-cleavage of 0.06.
U1C A5U G16C A57G A77G gave a self-cleavage of 0.12.
U1C A5U U51A gave a self-cleavage of 1.21.
For U1C A5U U69C, the self-cleavage was 0.57.
With U1C A13C A35U A65G U67C U69A the self-cleavage was 0.08.
U1C A13C U25C gave a self-cleavage of 0.52.
Work on U1C A13C U72C G73A yielded a self-cleavage of 0.88.
With U1C A13G A35G the self-cleavage was 0.51.
Work on U1C A13G C32U A45G C59A A65G U69A yielded a self-cleavage of 0.13.
In the case of U1C A13G C32U U72C, the self-cleavage is reported as 0.04.
For U1C A13G U31C A45G G53U A64U C79U, the self-cleavage was 0.05.
U1C A13G U41A A75G gave a self-cleavage of 0.27.
In the case of U1C A13G U41A U49C U54C, the self-cleavage is reported as 0.05.
For U1C A13G U43G C50G U67A, the self-cleavage was 0.18.
For U1C A13U A20G U25C C68A, the self-cleavage was 0.05.
With U1C A13U A20G U60G U80C the self-cleavage was 0.14.
U1C A13U A64G U80C showed a self-cleavage of 0.95.
For U1C A13U C38A A64G U80C, the self-cleavage was 0.17.
In the case of U1C A13U G24A U43A, the self-cleavage is reported as 0.11.
U1C A13U U41A U54C U58A gave a self-cleavage of 0.08.
In the case of U1C A13U U49C, the self-cleavage is reported as 0.45.
Variant U1C A13U U54G has a self-cleavage of 0.64.
U1C A15G A20G C32A A77G U80C gave a self-cleavage of 0.03.
Variant U1C A15G A21G C23G A28U U58C A64G has a self-cleavage of 0.18.
Variant U1C A15G A21G U48C A65U has a self-cleavage of 0.06.
Variant U1C A15G A28G A57U U58C has a self-cleavage of 0.05.
Variant U1C A15G A35G U67C U72C has a self-cleavage of 0.27.
Work on U1C A15G A45G G53C yielded a self-cleavage of 0.29.
Variant U1C A15G A64G G73A has a self-cleavage of 1.22.
Work on U1C A15G C23A G36A U80C yielded a self-cleavage of 0.27.
With U1C A15G C37U A45U G61A the self-cleavage was 0.04.
Variant U1C A15G U58C C81U has a self-cleavage of 0.38.
Work on U1C A15U A18G yielded a self-cleavage of 0.19.
U1C A15U A18U A28G A57U U67C showed a self-cleavage of 0.12.
Work on U1C A15U A18U G42C U43A yielded a self-cleavage of 0.05.
With U1C A15U U25C A28U U69A the self-cleavage was 0.2.
In the case of U1C A15U U51C U74A, the self-cleavage is reported as 0.56.
U1C A18G A28G U72C G73C gave a self-cleavage of 0.25.
Work on U1C A18G A45G A77C yielded a self-cleavage of 0.21.
Variant U1C A18G A64U A75G has a self-cleavage of 0.15.
U1C A18G C50G U51C G52U U60C gave a self-cleavage of 0.32.
With U1C A18G C62U U80C the self-cleavage was 0.18.
Variant U1C A18G U25A U54C U60C has a self-cleavage of 0.07.
Variant U1C A18G U25G U69A has a self-cleavage of 0.28.
With U1C A18G U26C A35G G63A C68U U72C the self-cleavage was 0.14.
Work on U1C A18G U41A yielded a self-cleavage of 0.4.
For U1C A18G U54C U60C, the self-cleavage was 0.12.
Work on U1C A18G U60A yielded a self-cleavage of 0.23.
Variant U1C A18G U72C A77U has a self-cleavage of 0.29.
U1C A18G U80C gave a self-cleavage of 0.9.
For U1C A18U A20G G73U U74C, the self-cleavage was 0.33.
U1C A18U A45G A47G U48C U67C gave a self-cleavage of 0.05.
Variant U1C A18U A45G C62U has a self-cleavage of 0.16.
U1C A18U C39U U41A U69C gave a self-cleavage of 0.12.
For U1C A18U G33A U58C, the self-cleavage was 0.06.
U1C A18U U26A C34G U72C showed a self-cleavage of 0.27.
With U1C A20G A45G G46A U78C the self-cleavage was 0.38.
Variant U1C A20G A75G has a self-cleavage of 0.83.
For U1C A20G C40A A64G, the self-cleavage was 0.25.
With U1C A20G G24U A56G the self-cleavage was 0.27.
In the case of U1C A20G G30U, the self-cleavage is reported as 0.3.
In the case of U1C A20G U25A, the self-cleavage is reported as 0.26.
U1C A20G U41G gave a self-cleavage of 0.07.
Variant U1C A20G U41G A56G A57G has a self-cleavage of 0.2.
For U1C A20G U43C U69C U78C, the self-cleavage was 0.14.
In the case of U1C A20G U43G U49A, the self-cleavage is reported as 0.3.
In the case of U1C A20G U48C U49C, the self-cleavage is reported as 0.35.
With U1C A20G U49A the self-cleavage was 0.29.
With U1C A20G U67C the self-cleavage was 0.74.
Work on U1C A20U A45C U51C A75U yielded a self-cleavage of 0.05.
In the case of U1C A20U U58C, the self-cleavage is reported as 0.39.
U1C A21C U25G U54C U69G showed a self-cleavage of 0.04.
For U1C A21G A75U, the self-cleavage was 0.86.
For U1C A21G U41C, the self-cleavage was 0.49.
U1C A21G U48C U54A U67A U76C showed a self-cleavage of 0.07.
U1C A21G U51C G70U showed a self-cleavage of 0.07.
U1C A28C A45G A56G U58C C62U U78C showed a self-cleavage of 0.17.
Variant U1C A28G U31C A35G has a self-cleavage of 1.02.
Work on U1C A28U A35G yielded a self-cleavage of 1.28.
In the case of U1C A28U A47G U49C U51A A64G, the self-cleavage is reported as 0.25.
With U1C A28U U54C A65G U74A U80C the self-cleavage was 0.46.
Work on U1C A35G A45G U67A yielded a self-cleavage of 0.23.
For U1C A35G U41C C59A, the self-cleavage was 0.77.
U1C A35G U51C U58C G63U gave a self-cleavage of 1.03.
Work on U1C A35G U69C yielded a self-cleavage of 1.11.
In the case of U1C A35G U80C, the self-cleavage is reported as 1.22.
For U1C A35U A57G, the self-cleavage was 0.48.
For U1C A35U U60C, the self-cleavage was 0.2.
For U1C A45G A47G A56U A57G A75G U76C, the self-cleavage was 0.
U1C A56U A57G A77U gave a self-cleavage of 0.17.
Variant U1C A57G U58C U60C U72C has a self-cleavage of 0.16.
In the case of U1C A64U U74A, the self-cleavage is reported as 0.39.
U1C A64U U80C showed a self-cleavage of 0.16.
For U1C C4U A20U A21U A56G U69A, the self-cleavage was 0.15.
For U1C C4U A64G, the self-cleavage was 1.04.
U1C C4U C50U showed a self-cleavage of 1.12.
Work on U1C C11G A15U U41A A65G U69G yielded a self-cleavage of 0.04.
U1C C11G A18G G52A A65G gave a self-cleavage of 0.08.
For U1C C11G A56U, the self-cleavage was 0.08.
For U1C C11G A56U G63A U80C, the self-cleavage was 0.09.
Variant U1C C11G G53A U54C U67A has a self-cleavage of 0.07.
Variant U1C C11G U25C G30C U41C A57G A64G has a self-cleavage of 0.04.
In the case of U1C C11U A28C U41G U43C U76C A77G, the self-cleavage is reported as 0.2.
U1C C11U U66C showed a self-cleavage of 0.25.
Work on U1C C12G C39U A65U G70A A77U yielded a self-cleavage of 0.03.
With U1C C12G U76C the self-cleavage was 0.4.
For U1C C12U A15U A35G C37U U51C U69C, the self-cleavage was 0.1.
U1C C12U C17A U66C U69A showed a self-cleavage of 0.17.
U1C C14G U74C U80C gave a self-cleavage of 1.21.
Work on U1C C17G A18G U51A U66C U69A U78A yielded a self-cleavage of 0.04.
In the case of U1C C17U A20G C34U U72C, the self-cleavage is reported as 0.04.
U1C C23A A35G U67C showed a self-cleavage of 0.13.
U1C C23A C29U U67A U69A U72C showed a self-cleavage of 0.04.
U1C C23U U25A U26C U60C G70A gave a self-cleavage of 0.04.
With U1C C29G U78A the self-cleavage was 0.38.
U1C C29U G33U U43C gave a self-cleavage of 0.13.
For U1C C29U U48C U66C, the self-cleavage was 0.11.
U1C C29U U74C showed a self-cleavage of 0.78.
For U1C C32A U41A A45G U54C A56U, the self-cleavage was 0.04.
For U1C C32U U74C A75G, the self-cleavage was 0.17.
U1C C34G U49C showed a self-cleavage of 0.06.
In the case of U1C C37A U43G U49C A56G U72C A75G, the self-cleavage is reported as 0.06.
In the case of U1C C40U A45G A57G U69C U74A, the self-cleavage is reported as 0.06.
In the case of U1C C40U U48C A56G U58C A64C, the self-cleavage is reported as 0.06.
Variant U1C C44U U66A has a self-cleavage of 0.06.
U1C C62A U78A gave a self-cleavage of 0.09.
Variant U1C G7A A13U A20G U58C U66C A77G has a self-cleavage of 0.04.
Variant U1C G7A A15G A28G C62U U66C has a self-cleavage of 0.03.
For U1C G7A U31C U43C A47C A77U, the self-cleavage was 0.06.
For U1C G7C A15U U31C G63A U66A U78C, the self-cleavage was 0.07.
For U1C G7U A28G U60C, the self-cleavage was 0.05.
Work on U1C G7U U26A C44U U67C A75G A77U yielded a self-cleavage of 0.04.
For U1C G8A A13U U26C U67C A75U, the self-cleavage was 0.04.
In the case of U1C G8A A20G C40A U51A U66C U80C, the self-cleavage is reported as 0.04.
Work on U1C G8A U26A A47U C59U yielded a self-cleavage of 0.04.
Variant U1C G8A U49C A56G U67C U72A has a self-cleavage of 0.04.
U1C G8C G30U A64G A75G showed a self-cleavage of 0.12.
In the case of U1C G8U A45C A56U, the self-cleavage is reported as 0.24.
With U1C G8U U41A U51A U54A U76C the self-cleavage was 0.06.
Variant U1C G8U U60A has a self-cleavage of 0.27.
In the case of U1C G9A A20U A45U G52C A56C U67C, the self-cleavage is reported as 0.03.
Variant U1C G9A A21G U67A U72C has a self-cleavage of 0.2.
With U1C G9A G24A U80C the self-cleavage was 0.05.
Variant U1C G9A U66C U67A has a self-cleavage of 0.05.
U1C G9C A56G A64G showed a self-cleavage of 0.27.
In the case of U1C G9U A20G G33A A45G U54A, the self-cleavage is reported as 0.09.
U1C G9U A21G U43C A57C A65G showed a self-cleavage of 0.05.
For U1C G10A A18U U60C, the self-cleavage was 0.15.
U1C G10A U26A gave a self-cleavage of 0.35.
In the case of U1C G10U A20G U69C, the self-cleavage is reported as 0.34.
Work on U1C G16A A57G U69C G73U yielded a self-cleavage of 0.16.
For U1C G16C A18G U25C U49C A56G, the self-cleavage was 0.26.
U1C G19A A45C A64U showed a self-cleavage of 0.2.
Variant U1C G22A U48C U54C has a self-cleavage of 0.14.
Work on U1C G22C U31C U51C G61C U72A yielded a self-cleavage of 0.05.
Work on U1C G24A U31C U51A G61C U78A yielded a self-cleavage of 0.05.
Variant U1C G24A U69C has a self-cleavage of 0.15.
U1C G30U A57G showed a self-cleavage of 0.41.
With U1C G33C U43C A56G the self-cleavage was 0.47.
For U1C G33U C39U A57G U66C, the self-cleavage was 0.14.
For U1C G42A A56U, the self-cleavage was 0.19.
With U1C G42A U76C U80C the self-cleavage was 0.32.
U1C G46U A64G U74C showed a self-cleavage of 0.4.
U1C U25A U43C showed a self-cleavage of 0.07.
Variant U1C U25C C39U A64G U80C has a self-cleavage of 0.07.
Variant U1C U25C G33A U41A has a self-cleavage of 0.07.
With U1C U25C U31C U41A the self-cleavage was 0.21.
